Substitutions are numbered along the chain they refer to. Numbers in names are those of the source. ± gives the standard deviation of the averaged measurements. Laboratory Escherichia coli strains with one amino-acid change in an essential protein, pooled on minimal glucose agar with carbenicillin or gentamicin at twice the control MIC (plus kanamycin and chloramphenicol for the plasmids), 48 h. Fold change of barcode share against drug-free plates; higher = less susceptible. Active = above 20 in both replicates (the paper's putatively resistant). '<' = one read or none on drug, '>' = one read or none on a drug-free plate. Shares are relative, so most strains fall below 1 when a few take over. Listed are strains with at least 15 reads on both drug-free plates, and hits; most hits rest on fewer reference reads. Replicate rank correlation about 0.5. Edits are read from barcodes. Where only a bound is given, the exact number is not on record here.

First the molecules themselves.
B1: obgE V201A (protein)
chain: MKFVDEASILVVAGDGGNGCVSFRREKYIPKGGPDGGDGGDGGDVWMEADENLNTLIDYRFEKSFRAERGQNGASRDCTGKRGKDVTIKVPVGTRVIDQGTGETMGDMTKHGQRLLVAKGGWHGLGNTRFKSSVNRTPRQKTNGTPGDKRELLLELMLLADVGMLGMPNAGKSTFIRAVSAAKPKVADYPFTTLVPSLGVARMDNEKSFVVADIPGLIEGAAEGAGLGIRFLKHLERCRVLLHLIDIDPIDGTDPVENARIIISELEKYSQDLATKPRWLVFNKIDLLDKVEAEEKAKAIAEALGWEDKYYLISAASGLGVKDLCWDVMTFIIENPVVQAEEAKQPEKVEFMWDDYHRQQLEEIAEEDDEDWDDDWDEDDEEGVEFIYKR
B2: obgE V201Q (protein)
chain: B1 chain with A201Q
B3: nadE L43A (protein)
chain: MTLQQQIIKALGAKPQINAEEEIRRSVDFLKSYLQTYPFIKSAVLGISGGQDSTLAGKLCQMAINELRLETGNESLQFIAVRLPYGVQADEQDCQDAIAFIQPDRVLTVNIKGAVLASEQALREAGIELSDFVRGNEKARERMKAQYSIAGMTSGVVVGTDHAAEAITGFFTKYGDGGTDINPLYRLNKRQGKQLLAALACPEHLYKKAPTADLEDDRPSLPDEVALGVTYDNIDDYLEGKNVPQQVARTIENWYLKTEHKRRPPITVFDDFWKK
B4: nadE I251A (protein)
chain: B3 chain with A43L, I251A
B5: nadE L195Q (protein)
chain: B3 chain with A43L, L195Q
B6: nadE F78Q (protein)
chain: B3 chain with A43L, F78Q
B7: nadE L196A (protein)
chain: B3 chain with A43L, L196A
B8: nadE V157A (protein)
chain: B3 chain with A43L, V157A
B9: nadE I79Q (protein)
chain: B3 chain with A43L, I79Q
B10: nadD V202A (protein)
chain: MKSLQALFGGTFDPVHYGHLKPVETLANLIGLTRVTIIPNNVPPHRPQPEANSVQRKHMLELAIADKPLFTLDERELKRNAPSYTAQTLKEWRQEQGPDVPLAFIIGQDSLLTFPTWYEYETILDNAHLIVCRRPGYPLEMAQPQYQQWLEDHLTHNPEDLHLQPAGKIYLAETPWFNISATIIRERLQNGESCEDLLPEPALTYINQQGLYR
B11: nadD V202Q (protein)
chain: B10 chain with A202Q
B12: nadD V202P (protein)
chain: B10 chain with A202P
B13: nadD V202D (protein)
chain: B10 chain with A202D
B14: nadD V202W (protein)
chain: B10 chain with A202W
B15: aspS I34Q (protein)
chain: MRTEYCGQLRLSHVGQQVTLCGWVNRRRDLGSLQFIDMRDREGIVQVFFDPDRADALKLASELRNEFCIQVTGTVRARDEKNINRDMATGEIEVLASSLTIINRADVLPLDSNHVNTEEARLKYRYLDLRRPEMAQRLKTRAKITSLVRRFMDDHGFLDIETPMLTKATPEGARDYLVPSRVHKGKFYALPQSPQLFKQLLMMSGFDRYYQIVKCFRDEDLRADRQPEFTQIDVETSFMTAPQVREVMEALVRHLWLEVKGVDLGDFPVMTFAEAERRYGSDKPDLRNPMELTDVADLLKSVEFAVFAGPANDPKGRVAALRVPGGASLTRKQIDEYGNFVKIYGAKGLAYIKVNERAKGLEGINSPVAKFLNAEIIEDILDRTAAQDGDMIFFGADNKKIVADAMGALRLKVGKDLGLTDESKWAPLWVIDFPMFEDDGEGGLTAMHHPFTSPKDMTAAELKAAPENAVANAYDMVINGYEVGGGSVRIHNGDMQQTVFGILGINEEEQREKFGFLLDALKYGTPPHAGLAFGLDRLTMLLTGTDNIRDVIAFPKTTAAACLMTEAPSFANPTALAELSIQVVKKAENN

The target of the first data set is Escherichia coli (laboratory strain). The data set is described as follows: barcode share on antibiotic plates over drug-free plates; higher = less susceptible. The following applies: antibiotic: gentamicin; 2× MIC (MIC 0.45 µg/mL). The protocol: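 A pool of E. coli strains, each edited to carry one amino-acid change in an essential protein, was grown for 48 h on minimal glucose agar with or without antibiotic; strain barcodes were sequenced; mean of two replicates.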
For B1, the “fold change of barcode share” value is < 0.0096.

In the case of B2, the “fold change of barcode share” value is < 0.0146.

On to B3, for which the “fold change of barcode share” value was < 0.00687.

As to B4, the “fold change of barcode share” value was < 0.0158.

Take B5: the “fold change of barcode share” value is < 0.00604.

As to B6, the “fold change of barcode share” value is < 0.0173.

For the protein B7, the “fold change of barcode share” value is < 0.0119.

In the case of B8, the “fold change of barcode share” value is < 0.00752.

Regarding B9, the “fold change of barcode share” value amounted to 0.0159 ± 0.0084.

With B10, the “fold change of barcode share” value amounted to 0.0346 ± 0.03.

As to B11, the “fold change of barcode share” value stood at 0.00448 ± 0.0015.

B12: the “fold change of barcode share” value was 0.00661 ± 0.0066.

For B13, the “fold change of barcode share” value is < 0.00204.

Turning to B14, the “fold change of barcode share” value was found to be 0.00257 ± 0.00029.

Take B15: the “fold change of barcode share” value is < 0.0163.

The data set is the same for the next values; noted with them: antibiotic: carbenicillin; 2× MIC (3.1 µg/mL).
For the protein B3, the “fold change of barcode share” value stood at 2.12 ± 2.1.

With B4, the “fold change of barcode share” value amounted to 0.257 ± 0.04.

As for B5, the “fold change of barcode share” value was found to be 0.436 ± 0.23.

For B6, the “fold change of barcode share” value came to 0.2 ± 0.093.

In the case of B7, the “fold change of barcode share” value is 0.176 ± 0.077.

As to B8, the “fold change of barcode share” value was determined as 0.248 ± 0.04.

B9: the “fold change of barcode share” value is 0.171 ± 0.043.

With B10, the “fold change of barcode share” value stood at 0.299 ± 0.072.

Regarding B11, the “fold change of barcode share” value worked out at 0.227 ± 0.05.

For B12, the “fold change of barcode share” value was 0.226 ± 0.079.

In the case of B13, the “fold change of barcode share” value came to 0.25 ± 0.067.

Take B14: the “fold change of barcode share” value was found to be 0.478 ± 0.0092.

(Values after the supplement of paper PMC11876631.)
